The values that follow come from article PMC4336329 (PLoS ONE, 2015).

About 2,200 (0.71%) of roughly 310,000 compounds showed an effect of 50% or more. Effects have a minus sign here. The list shows a part of the results.

human ether-à-go-go-related gene (hERG) potassium channel, sequence (Q12809 whole entry, looked up): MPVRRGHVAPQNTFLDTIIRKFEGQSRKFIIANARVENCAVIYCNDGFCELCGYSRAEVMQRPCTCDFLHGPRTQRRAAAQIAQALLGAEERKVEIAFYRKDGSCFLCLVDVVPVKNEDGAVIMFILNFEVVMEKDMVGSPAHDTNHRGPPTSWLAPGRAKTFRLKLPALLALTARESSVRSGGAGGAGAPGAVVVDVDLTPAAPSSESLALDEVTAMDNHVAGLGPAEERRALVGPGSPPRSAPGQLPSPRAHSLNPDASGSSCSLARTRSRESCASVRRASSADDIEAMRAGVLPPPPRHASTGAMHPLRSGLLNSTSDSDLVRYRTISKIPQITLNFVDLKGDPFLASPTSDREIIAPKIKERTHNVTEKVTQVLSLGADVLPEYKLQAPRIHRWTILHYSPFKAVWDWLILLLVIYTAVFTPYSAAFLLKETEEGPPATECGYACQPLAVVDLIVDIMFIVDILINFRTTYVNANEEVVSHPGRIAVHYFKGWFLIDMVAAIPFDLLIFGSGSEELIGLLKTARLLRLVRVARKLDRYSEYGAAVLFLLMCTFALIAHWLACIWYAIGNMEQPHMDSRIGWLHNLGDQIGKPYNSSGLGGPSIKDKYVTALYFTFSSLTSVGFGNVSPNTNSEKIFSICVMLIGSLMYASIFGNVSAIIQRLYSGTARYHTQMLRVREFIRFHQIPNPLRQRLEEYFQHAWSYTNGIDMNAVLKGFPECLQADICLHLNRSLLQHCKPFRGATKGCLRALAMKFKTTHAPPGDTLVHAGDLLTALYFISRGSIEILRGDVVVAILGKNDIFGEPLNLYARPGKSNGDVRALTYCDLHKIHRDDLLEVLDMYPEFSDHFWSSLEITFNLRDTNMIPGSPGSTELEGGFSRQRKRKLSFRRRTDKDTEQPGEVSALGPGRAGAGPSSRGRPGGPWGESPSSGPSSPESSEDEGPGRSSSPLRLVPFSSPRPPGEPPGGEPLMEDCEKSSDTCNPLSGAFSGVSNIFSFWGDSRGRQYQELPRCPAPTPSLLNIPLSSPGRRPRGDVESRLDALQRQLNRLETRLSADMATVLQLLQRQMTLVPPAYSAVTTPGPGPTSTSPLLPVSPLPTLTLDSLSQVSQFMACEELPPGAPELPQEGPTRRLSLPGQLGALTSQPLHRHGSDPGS

The assay concerns the target human ether-à-go-go-related gene (hERG) potassium channel (human, UniProt Q12809). The assay is described as follows: primary screen, population patch clamp on CHO cells stably expressing hERG.
As for `O=C(C1CCC(Cn2c(=S)[nH]c3ccccc3c2=O)CC1)N1CCN(c2ccccn2)CC1` (stereo not shown), the “hERG current change (%, negative = inhibition) at 1uM” value is recorded as 6.77%.

For the compound `Nn1c(SCC(=O)N2CCCCCC2)nnc1-c1ccncc1`, the “hERG current change (%, negative = inhibition) at 1uM” value is -0.911%.

With `Cn1cccc1CC(=O)NNC(=O)Nc1ccccc1F`, the “hERG current change (%, negative = inhibition) at 1uM” value is on record as 12%.

Consider `O=C(O)c1ccccc1C(=O)Nn1cnnc1`, for which the “hERG current change (%, negative = inhibition) at 1uM” value was found to be 15.3%.

`CC1CCCCC1NC(=O)/C(C#N)=C/c1ccccc1F` (stereo not shown): the “hERG current change (%, negative = inhibition) at 1uM” value is -2.15%.

Consider `CC1COc2ccccc2N1C(=O)c1ccc(F)cc1` (stereo not shown), for which the “hERG current change (%, negative = inhibition) at 1uM” value is listed as 9.3%.

`COc1ccc(OCCOC(=O)c2cc(S(=O)(=O)N3CCOCC3)c(Cl)cc2Cl)cc1`: the “hERG current change (%, negative = inhibition) at 1uM” value amounted to 0.154%.

Regarding `CCOc1cc(/C=N/NC(=O)c2ccc(CSc3nncn3C)cc2)ccc1OCC(=O)N1CCOCC1`, the “hERG current change (%, negative = inhibition) at 1uM” value was found to be 11.7%.

On to `CC1CCN(c2ccc(/C=C(\C#N)c3nn(-c4ccccc4)c(N)c3C#N)cc2[N+](=O)[O-])CC1`, for which the “hERG current change (%, negative = inhibition) at 1uM” value worked out at 10.7%.

As for `COc1ccc(CNC(=O)COC(=O)C2CC2C)cc1OC` (stereo not shown), the “hERG current change (%, negative = inhibition) at 1uM” value stood at 5.53%.

Turning to `N#CC1=C2SC=C(c3ccc(Br)cc3)N2CCCC1=O`, the “hERG current change (%, negative = inhibition) at 1uM” value is given as 13.4%.

Consider `CCOC(=O)C1CCN(C2CC(=O)N(c3cccc(Cl)c3)C2=O)CC1` (stereo not shown), for which the “hERG current change (%, negative = inhibition) at 1uM” value is listed as -0.575%.

On to `Cc1cccc(/C(N)=N/OC(=O)CCC2CCCCC2)c1`, for which the “hERG current change (%, negative = inhibition) at 1uM” value amounted to 3.86%.

Regarding `Cn1cc([N+](=O)[O-])c(C(=O)Nc2ccc(C(=O)N3CCCCC3)cc2)n1`, the “hERG current change (%, negative = inhibition) at 1uM” value was found to be 14.8%.

With `CCOc1ccc(NC(=O)CSc2nc(=O)n(Cc3ccccn3)c3c2CCC3)cc1`, the “hERG current change (%, negative = inhibition) at 1uM” value is -3.28%.

Regarding `Cc1ccc(S(=O)(=O)N(C)c2ccc(OCC(=O)OCc3c(C)noc3C)cc2)cc1`, the “hERG current change (%, negative = inhibition) at 1uM” value turned out to be 11.2%.

In the case of `CC(C)N(Cc1ccccc1)C(=O)CN1C(=O)COc2ccc(S(=O)(=O)NC3CCCC3)cc21`, the “hERG current change (%, negative = inhibition) at 1uM” value was 7.31%.

Regarding `N#Cc1c([N+](=O)[O-])cc([N+](=O)[O-])cc1S(=O)(=O)Cc1ccccc1`, the “hERG current change (%, negative = inhibition) at 1uM” value is given as 12.9%.

Consider `COCCN(C(=O)COC(=O)c1ccccc1NCc1ccco1)c1c(N)n(Cc2ccccc2)c(=O)[nH]c1=O`, for which the “hERG current change (%, negative = inhibition) at 1uM” value is 9.57%.

In the case of `Cc1ccc(NS(=O)(=O)c2ccc(NC(=O)N3CCCCC3)cc2)cc1`, the “hERG current change (%, negative = inhibition) at 1uM” value was determined as 8.05%.

As for `C=CCc1c(C)nc(SC)nc1Nc1ccccc1`, the “hERG current change (%, negative = inhibition) at 1uM” value is reported as -3.11%.

Consider `COc1ccccc1NC(=O)Cn1cc(C(=O)c2ccco2)c2ccccc21`, for which the “hERG current change (%, negative = inhibition) at 1uM” value turned out to be 0.972%.

With `Cc1ccc(C(=O)CSc2nnc(COc3cc(C)cc(C)c3)o2)cc1`, the “hERG current change (%, negative = inhibition) at 1uM” value was found to be 15.3%.

In the case of `CCOC(=O)CC1C(=O)NCCN1S(=O)(=O)c1cccc(C(F)(F)F)c1` (stereo not shown), the “hERG current change (%, negative = inhibition) at 1uM” value came out at 13.1%.

As to `O=C(c1cc(COc2c(F)cccc2F)on1)N(Cc1ccccc1)CC1CC1`, the “hERG current change (%, negative = inhibition) at 1uM” value was 5.15%.

`N=C1C(=O)OCC1c1ccccc1NC(=O)c1ccccc1` (stereo not shown): the “hERG current change (%, negative = inhibition) at 1uM” value amounted to 14.8%.

In the case of `O=C(CSc1ccc([N+](=O)[O-])cc1)OCC(=O)N1CCCC1=O`, the “hERG current change (%, negative = inhibition) at 1uM” value is given as -2.35%.

`CCOC(=O)c1c(NC(=O)COC(=O)c2ccc([N+](=O)[O-])cc2)sc(C(=O)N(C)C)c1C`: the “hERG current change (%, negative = inhibition) at 1uM” value worked out at 8.47%.

As for `COc1ccccc1CC(NC(C)=O)C(=O)NC1CCN(C(=O)Nc2ccccc2Cl)CC1` (stereo not shown), the “hERG current change (%, negative = inhibition) at 1uM” value came out at 3.64%.

With `Cl.O=C(CN1CCOCC1)NCc1ccc(F)cc1`, the “hERG current change (%, negative = inhibition) at 1uM” value worked out at 15.9%.

For the compound `O=C(C=C=Nc1ccccc1)C(=O)N=C=Cc1ccccc1`, the “hERG current change (%, negative = inhibition) at 1uM” value is given as 14.1%.

As for `Cc1ccc(NC(=S)N/N=C2\CC(C)(C)Oc3ccc(O)cc32)cc1`, the “hERG current change (%, negative = inhibition) at 1uM” value was determined as 3.09%.

As for `COc1ccc(Cn2nnnc2C(c2ccc(F)cc2)N2CCN(C3CCCC3)CC2)cc1` (stereo not shown), the “hERG current change (%, negative = inhibition) at 1uM” value was -15%.

`CC(C)[C@H](NC(=O)c1ccc(Cl)c([N+](=O)[O-])c1)C(=O)NCc1ccc(F)cc1`: the “hERG current change (%, negative = inhibition) at 1uM” value worked out at 10.1%.

Consider `Cc1ccc(CSCC(=O)N(C)CC(=O)Nc2cccc(F)c2)cc1`, for which the “hERG current change (%, negative = inhibition) at 1uM” value worked out at 0.653%.

As for `Cc1occc1-c1nnc(SCC(=O)Nc2ccc3c(c2)OCO3)n1CC1CCCO1` (stereo not shown), the “hERG current change (%, negative = inhibition) at 1uM” value was 2.19%.

In the case of `CCOc1ccc(NC(=O)CN(C)C(=O)c2cc(-c3cccs3)nn2-c2ccccc2)cc1OCC`, the “hERG current change (%, negative = inhibition) at 1uM” value is -14.3%.

Regarding `CCOC(=O)c1cnc(SCCc2ccccc2)nc1N`, the “hERG current change (%, negative = inhibition) at 1uM” value was 12.3%.

As to `O=C(C1CCCN1S(=O)(=O)c1ccc(Br)cc1)N1CCOCC1` (stereo not shown), the “hERG current change (%, negative = inhibition) at 1uM” value is listed as 6.73%.

Take `O=C(CSc1nnc(CNc2ccc(F)cc2)n1-c1ccccc1)N1CCOCC1`: the “hERG current change (%, negative = inhibition) at 1uM” value is given as -0.964%.

Take `CC(C)(C)c1ccc(/C=C(\C#N)C(=O)Nc2ccccn2)cc1`: the “hERG current change (%, negative = inhibition) at 1uM” value came out at 15.4%.

`O=C(COc1ccccc1Cl)N1CCN(c2ncccn2)CC1`: the “hERG current change (%, negative = inhibition) at 1uM” value is recorded as 5.11%.

With `CCCCN(C(=O)c1ccc(C)o1)c1c(N)n(CC(C)C)c(=O)[nH]c1=O`, the “hERG current change (%, negative = inhibition) at 1uM” value is on record as 12.2%.

Turning to `CC(/C=C/c1ccco1)=N\NC(=O)c1cccc(Cl)c1`, the “hERG current change (%, negative = inhibition) at 1uM” value is 12.2%.

On to `Cc1[nH]c(C)c(S(=O)(=O)NCc2ccc(N(C)C)cc2)c1C(=O)N1CCCC1`, for which the “hERG current change (%, negative = inhibition) at 1uM” value is 9.62%.

In the case of `CCN(CC)S(=O)(=O)c1cccc(-c2nnc(SCC(=O)NC)n2N)c1`, the “hERG current change (%, negative = inhibition) at 1uM” value is on record as 11.9%.

Turning to `O=C(c1ccc(S(=O)(=O)Nc2ccccc2F)cc1)N1CCN(c2ccccc2O)CC1`, the “hERG current change (%, negative = inhibition) at 1uM” value was found to be 6.88%.

Regarding `Cc1ccc(CNC(=O)COC(=O)C2CC2)cc1`, the “hERG current change (%, negative = inhibition) at 1uM” value was found to be 9.64%.

`O=C(NCCOc1cccc(Cl)c1Cl)c1cc(-n2cnnc2)ccc1Cl`: the “hERG current change (%, negative = inhibition) at 1uM” value is listed as -6.67%.

As for `c1ccc(-c2nccc3ccccc23)cc1`, the “hERG current change (%, negative = inhibition) at 1uM” value is on record as 6.57%.

For the compound `O=C(CNC(=O)c1ccc2ccccc2c1)Nc1ncccc1O`, the “hERG current change (%, negative = inhibition) at 1uM” value was determined as 6.56%.

As to `Cc1cc(OC(C)C(=O)N/N=C/CC(C)c2ccccc2)ccc1Cl` (stereo not shown), the “hERG current change (%, negative = inhibition) at 1uM” value worked out at 14%.

Take `O=C(O)C1C2C=CC3(CN(Cc4ccncc4)C(=O)C13)O2` (stereo not shown): the “hERG current change (%, negative = inhibition) at 1uM” value is listed as 16.1%.

Turning to `CCOC(=O)c1ccccc1NC(=O)CN(c1cccc(OC)c1)S(C)(=O)=O`, the “hERG current change (%, negative = inhibition) at 1uM” value worked out at 3.7%.

With `O=C(NCCOc1ccccc1)C1Nc2ccc(C(F)(F)F)cc2C2c3ccccc3CC12` (stereo not shown), the “hERG current change (%, negative = inhibition) at 1uM” value is recorded as 6.96%.
